Source: patent US20160106837A1, “COMBINATION OF CD37 ANTIBODIES WITH CHLORAMBUCIL” (BOEHRINGER INGELHEIM INTERNATIONAL GMBH, priority 2013, published 2016)
“Also recorded” adds a separate entry of the source. Read-outs that look alike come from different tables or passages of the source.

Assays:
mouse CD37 = biological target: T1, mouse CD37 (Mus musculus, UniProt Q61470); experiment: Cross-reactivity with mouse CD37; format: binding
T1 sequence (Q61470 1-281): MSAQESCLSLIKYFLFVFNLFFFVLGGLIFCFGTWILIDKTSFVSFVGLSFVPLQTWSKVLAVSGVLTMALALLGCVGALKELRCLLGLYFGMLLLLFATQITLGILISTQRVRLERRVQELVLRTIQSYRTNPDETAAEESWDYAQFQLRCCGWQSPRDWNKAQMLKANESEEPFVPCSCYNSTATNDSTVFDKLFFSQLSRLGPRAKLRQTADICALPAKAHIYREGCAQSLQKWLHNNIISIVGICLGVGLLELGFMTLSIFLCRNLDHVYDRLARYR

[1] = mouse, in vivo
CD37 [2] = biological target: T2, CD37 (Homo sapiens, UniProt P11049); experiment: In vitro apoptosis induction / cytotoxicity with or without IgG cross-linking; format: cell-based
T2 sequence (P11049 1-281): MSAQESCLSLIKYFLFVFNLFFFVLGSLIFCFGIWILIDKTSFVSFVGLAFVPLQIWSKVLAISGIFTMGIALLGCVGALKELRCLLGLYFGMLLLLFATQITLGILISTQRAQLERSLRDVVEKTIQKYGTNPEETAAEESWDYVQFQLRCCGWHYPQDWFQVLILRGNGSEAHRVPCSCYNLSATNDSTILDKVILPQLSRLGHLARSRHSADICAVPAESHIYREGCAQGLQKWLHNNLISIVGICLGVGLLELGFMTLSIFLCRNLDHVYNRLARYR

[3] = test system: human follicular lymphoma DOHH2; experiment: Subcutaneous xenograft model of the human follicular lymphoma DOHH2 in C.B-17 scid mice: tumor growth; format: in vivo
CD37 [4] = biological target: T2, CD37; details: from WO2009/019312 or EP 2 132 228 B1; cited from earlier work
CD37 [5] = biological target: T2, CD37; experiment: Binding to human CD37

B1: antibody A2: mouse-human chimeric Fc-engineered IgG1 antibody to human CD37; heavy chain SEQ ID NO: 5, light chain SEQ ID NO: 6 (antibody)
heavy: AVQLQQSGPELEKPGASVKISCKASGYSFTGYNMNWVKQNNGKSLEWIGNIDPYYGGTTYNRKFKGKATLTVDKSSSTAYMQLKSLTSEDSAVYYCARSVGPMDYWGQGTSVTVSSASTKGPSVFPLAPSSKSTSGGTAALGCLVKDYFPEPVTVSWNSGALTSGVHTFPAVLQSSGLYSLSSVVTVPSSSLGTQTYICNVNHKPSNTKVDKRV[letters of human IgG1 Fc with changes not shown]
light: DIQMTQSPASLSASVGETVTITCRTSENVYSYLAWYQQKQGKSPQLLVSFAKTLAEGVPSRFSGSGSGTQFSLKISSLQPEDSGSYFCQHHSDNPWTFGGGTELEIKRTVAAPSVFIFPPSDEQLKSGTASVVCLLNNFYPREAKVQWKVDNALQSGNSQESVTEQDSKDSTYSLSSTLTLSKADYEKHKVYACEVTHQGLSSPVTKSFNRGEC
modifications: /mol_type=“protein” /note=“Synthetic construct heavy chain A2” /organism=“Artificial Sequence”; /mol_type=“protein” /note=“Synthetic construct light chain A2” /organism=“Artificial Sequence”
binding to mouse CD37 (in words) (mouse CD37): does not bind to mouse CD37; also recorded: does not cross-react with mouse CD37
binding to mouse CD37 (in words) (mouse CD37; listed as Antibody A2): does not cross-react with mouse CD37
tolerability / body weight course (in words) [1]: well tolerated
in vitro cytotoxicity (apoptosis induction, ADCC, tumor cell depletion in whole blood assays) (CD37 [2]): potent
pro-apoptotic activity without IgG cross-linking, single agent and with chlorambucil (CD37 [2]; absence of IgG cross-linking antibody): exerts its pro-apoptotic activity without the need of an IgG cross-linking antibody
CR (complete tumor regression) ([3]; day 16): 0 x/7
PR (partial tumor regression) ([3]; day 16): 0 x/7
tumor regression (in words) ([3]; day 16): Tumor regressions were not observed
TGI ([3]; median, day 16, A2 10 mg/kg i.p. d1,5,8,12,15, chlorambucil 6 mg/kg i.p. d2,6): 73%
tumor growth inhibition (in words) ([3]; vs controls): significantly inhibited growth
apoptosis induction, dependence on IgG cross-linking (CD37 [4]): potent inducer of apoptosis both in the absence and presence of an IgG cross-linking antibody
binding to human CD37 (in words) (CD37 [5]): specific for human CD37; also recorded: binds specifically to human CD37
binding to human CD37 (in words) (CD37 [5]; listed as Antibody A2): high affinity
